Experimental data taken from PubChem BioAssay (NCATS).
This list was built around the results that the source calls inconclusive (neither active nor inactive); the mix of calls is not that of the screen. For some assays here: No potency is given beside an inconclusive call; the fits are too rough. For some assays here: “Side channel” marks fits to a control or component signal instead of the main read-out. The source made the active and inactive calls. Unless noted, the call rests on the fitted dose curve; in most records, active means well fitted curve in the direction sought with a large enough effect; inconclusive means small, poorly fitted or top-dose-only effect, or another doubt; inactive means no such curve, though single readings can be large; an effect the other way counts as inactive or inconclusive.

What was measured:
[1] = qHTS for differential inhibitors of proliferation of Plasmodium falciparum line D10 (AID 1877);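 further: potency means the concentration at half of the fitted maximal effect; parasites grown with compound for 72 h before DNA staining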
[2] = biological target: DNA repair nuclease/redox regulator APEX1 (Homo sapiens) (UniProt P27695); assay: Confirmation qHTS Assay for Inhibitors of the Human Apurinic/apyrimidinic Endonuclease 1 (APE1) (AID 2572); further: potency means the concentration at half of the fitted maximal effect; nearly all actives have a fitted effect of over 30% in size
Sequence of UniProt P27695 (P27695 whole entry, looked up): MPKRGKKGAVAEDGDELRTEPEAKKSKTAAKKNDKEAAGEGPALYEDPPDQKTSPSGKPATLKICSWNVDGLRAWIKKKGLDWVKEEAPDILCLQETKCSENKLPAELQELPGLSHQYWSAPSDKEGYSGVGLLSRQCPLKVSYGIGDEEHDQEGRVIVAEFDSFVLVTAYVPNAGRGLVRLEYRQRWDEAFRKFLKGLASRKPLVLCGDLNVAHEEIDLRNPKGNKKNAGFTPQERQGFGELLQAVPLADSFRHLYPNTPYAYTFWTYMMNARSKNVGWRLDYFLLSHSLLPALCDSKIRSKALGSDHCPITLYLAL
Procedure, shortened: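 Cleavage of a tetrahydrofuran abasic site in a 50 nM (final) TAMRA/BHQ-2 duplex was tracked by rising fluorescence, measured in kinetic mode; reaction progress computed from the first-to-third read difference.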

[3] = biological target: DNA repair nuclease/redox regulator APEX1 (Homo sapiens) (UniProt P27695); assay: qHTS FP-Based Assay for Inhibitors of the Human Apurinic/apyrimidinic Endonuclease 1 (APE1) (AID 2573); settings: APE1 binding to TAMRA-labelled double-stranded DNA, fluorescence polarization displacement; further: potency means the concentration at half of the fitted maximal effect
[4] = biological target: Ubiquitin carboxyl-terminal hydrolase 2 (Homo sapiens) (UniProt O75604); assay: qHTS Validation Assay for Inhibitors of Ubiquitin-specific Protease USP2a Using CHOP2 as the Reporter (AID 463106); settings: USP2a cleavage of CHOP2 reporter, enzymatic; at 38.3 µM (top of the series);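 further: plate controls were DMSO for no effect and full inhibition by NEM for full effect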
Sequence of UniProt O75604 (O75604 whole entry, looked up): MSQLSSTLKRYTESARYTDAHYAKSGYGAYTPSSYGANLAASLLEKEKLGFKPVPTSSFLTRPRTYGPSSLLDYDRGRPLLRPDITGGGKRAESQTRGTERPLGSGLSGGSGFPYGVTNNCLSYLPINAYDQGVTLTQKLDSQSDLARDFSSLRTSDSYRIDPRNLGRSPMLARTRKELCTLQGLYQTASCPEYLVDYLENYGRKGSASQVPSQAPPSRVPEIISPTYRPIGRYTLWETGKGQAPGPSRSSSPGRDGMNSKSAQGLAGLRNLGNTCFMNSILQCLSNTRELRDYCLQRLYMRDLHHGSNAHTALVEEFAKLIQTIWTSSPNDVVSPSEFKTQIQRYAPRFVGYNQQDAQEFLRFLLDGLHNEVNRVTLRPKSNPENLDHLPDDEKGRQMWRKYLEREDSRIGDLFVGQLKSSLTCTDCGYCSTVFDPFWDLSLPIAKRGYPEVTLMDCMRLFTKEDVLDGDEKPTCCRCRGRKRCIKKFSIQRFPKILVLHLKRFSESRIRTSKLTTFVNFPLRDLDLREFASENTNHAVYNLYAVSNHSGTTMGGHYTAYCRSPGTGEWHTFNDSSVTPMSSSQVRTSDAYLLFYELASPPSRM
Procedure, shortened: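 Fluorescence read-out at Ex 485nm/Em 531nm after 60min RT, following addition of 25nM Ub-CHOP2 plus 25nM reporter substrate to USP2 core (10nM) pretreated 30min with compound. Data normalized to NEM full inhibition; concentration-response curves fitted.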

[5] = biological target: phosphoglycerate mutase (Leishmania major) (UniProt Q4Q090); assay: qHTS Validation Assay to Find Inhibitors of Phosphoglycerate Mutase (AID 504548); settings: biochemical enzyme activity, inhibition qHTS; further: potency means the concentration at half of the fitted maximal effect
Procedure, shortened: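 Luminescent end-point read-out via Kinase-GloPlus after a 10-minute development. Reaction: 1.25nM Leishmania major PGAM with substrate and compound, 45 minutes at room temperature in TEA buffer (pH 7.6) with MgCl2 and Tween-20.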

[6] = biological target: Glucagon-like peptide 1 receptor (Homo sapiens) (UniProt P43220); assay: qHTS of GLP-1 Receptor Agonists: LOPAC Validation (AID 624148); settings: GLP-1R agonist cell assay; further: potency means the concentration at half of the fitted maximal effect
Sequence of UniProt P43220 (P43220 whole entry, looked up): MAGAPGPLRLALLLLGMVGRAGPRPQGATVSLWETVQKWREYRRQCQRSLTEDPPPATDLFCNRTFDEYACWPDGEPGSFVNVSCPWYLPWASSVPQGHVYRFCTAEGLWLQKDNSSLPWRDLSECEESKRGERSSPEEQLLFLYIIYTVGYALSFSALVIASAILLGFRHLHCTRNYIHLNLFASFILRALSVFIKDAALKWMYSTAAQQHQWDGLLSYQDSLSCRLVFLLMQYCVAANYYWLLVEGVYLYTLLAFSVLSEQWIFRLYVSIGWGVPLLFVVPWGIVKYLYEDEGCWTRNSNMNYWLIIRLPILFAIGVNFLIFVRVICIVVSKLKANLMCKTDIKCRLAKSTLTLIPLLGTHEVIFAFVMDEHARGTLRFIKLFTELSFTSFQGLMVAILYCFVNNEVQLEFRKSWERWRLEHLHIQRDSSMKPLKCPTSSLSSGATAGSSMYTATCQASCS
Procedure, shortened: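 HEK293 cells stably co-expressing GLP-1R and a cAMP-responsive luciferase reporter, plated 12 hours before compound, then incubated 4-6 hr at 37 deg C. Luminescence read 12 min after detection reagent.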

[7] = test system: Zika virus NS2B-NS3 protease (unlinked); assay: Optimization of GU AMC qHTS for Zika virus inhibitors: Unlinked NS2B-NS3 protease assay (AID 1347151); further: potency means the concentration at half of the fitted maximal effect; nearly all actives have a fitted effect of over 80% in size
Procedure, shortened: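 Noncovalent NS2B hydrophilic domain–NS3 protease complex (25 nM final) in 10 mM Tris-HCl pH 8.0, 0.01% Tween 20; AMC substrate, room temperature 15 min (~20% conversion); fluorescence change normalized, 4-parameter Hill fit.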

[8] = Viability counterscreen for agonist of constitutive androstane receptor (CAR) against the NCATS DSHEA and TCM libraries (AID 1794838); settings: HepG2 cell viability counterscreen, CAR agonist assay; co-treated with 0.75 µM CAR antagonist;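 further: HepG2 cells with CYP2B6 reporter and hCAR plus 0.75 µM PK11195 antagonist; potency means the concentration at half of the fitted maximal effect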
Procedure, shortened: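 HepG2-CYP2B6-hCAR cells (2,500/well) treated 24 h at 37C with compounds plus 0.75 uM PK11195; viability read by CellTiter-Fluor fluorescence, Ex/Em 405/540 nm.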

[9] = biological target: Cytochrome P450 3A4 (Homo sapiens) (UniProt P08684); assay: qHTS for inhibitors of CYP3A4 against the NCATS DSHEA and TCM libraries (AID 1919971);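 further: on the % scale 0 is the no-effect control and ±100 the full control effect; inhibition lowers luminescence from luciferin made by CYP3A4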
Sequence of UniProt P08684 (P08684 whole entry, looked up, canonical isoform): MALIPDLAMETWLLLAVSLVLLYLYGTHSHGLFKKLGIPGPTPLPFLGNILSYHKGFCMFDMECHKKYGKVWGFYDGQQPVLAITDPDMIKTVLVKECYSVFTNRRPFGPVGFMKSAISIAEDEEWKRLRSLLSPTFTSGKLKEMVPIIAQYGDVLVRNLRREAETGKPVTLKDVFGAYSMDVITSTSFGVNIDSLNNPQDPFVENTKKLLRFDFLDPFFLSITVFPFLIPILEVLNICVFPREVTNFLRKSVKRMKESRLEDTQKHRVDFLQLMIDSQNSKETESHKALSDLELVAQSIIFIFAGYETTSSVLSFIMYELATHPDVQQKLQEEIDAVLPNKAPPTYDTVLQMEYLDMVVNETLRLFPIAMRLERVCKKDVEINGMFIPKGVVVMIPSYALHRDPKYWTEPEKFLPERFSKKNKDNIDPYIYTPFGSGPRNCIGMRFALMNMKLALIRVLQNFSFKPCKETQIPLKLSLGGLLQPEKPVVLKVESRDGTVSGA
Procedure, shortened: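 Each CYP isoform and its pro-luciferin substrate, at isoform-specific final concentrations, were preincubated 15 min at RT with substances. NADPH regeneration solution (1x) started a 30-45 min reaction, and P450-Glo luminescence was read.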

[10] = biological target: Cytochrome P450 1A2 (Homo sapiens) (UniProt P05177); assay: qHTS for inhibitors of CYPIA2 against the NCATS DSHEA and TCM libraries (AID 1919976); further: on the % scale 0 is the no-effect control and ±100 the full control effect
Procedure, shortened: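 Reaction started with 1x NADPH regeneration solution and run 30-45 min, room temperature, protected from light, after compounds sat 15 min with CYP1A2 and pro-luciferin substrate. P450-Glo detection gave luminescence; furafylline served as control.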

Furin (Homo sapiens) = Furin (Homo sapiens) (UniProt P09958); assay: Furin counterscreen qHTS for Zika virus inhibitors (AID 1347149); further: potency means the concentration at half of the fitted maximal effect; nearly all actives have a fitted effect of over 70% in size
Sequence of UniProt P09958 (P09958 whole entry, looked up): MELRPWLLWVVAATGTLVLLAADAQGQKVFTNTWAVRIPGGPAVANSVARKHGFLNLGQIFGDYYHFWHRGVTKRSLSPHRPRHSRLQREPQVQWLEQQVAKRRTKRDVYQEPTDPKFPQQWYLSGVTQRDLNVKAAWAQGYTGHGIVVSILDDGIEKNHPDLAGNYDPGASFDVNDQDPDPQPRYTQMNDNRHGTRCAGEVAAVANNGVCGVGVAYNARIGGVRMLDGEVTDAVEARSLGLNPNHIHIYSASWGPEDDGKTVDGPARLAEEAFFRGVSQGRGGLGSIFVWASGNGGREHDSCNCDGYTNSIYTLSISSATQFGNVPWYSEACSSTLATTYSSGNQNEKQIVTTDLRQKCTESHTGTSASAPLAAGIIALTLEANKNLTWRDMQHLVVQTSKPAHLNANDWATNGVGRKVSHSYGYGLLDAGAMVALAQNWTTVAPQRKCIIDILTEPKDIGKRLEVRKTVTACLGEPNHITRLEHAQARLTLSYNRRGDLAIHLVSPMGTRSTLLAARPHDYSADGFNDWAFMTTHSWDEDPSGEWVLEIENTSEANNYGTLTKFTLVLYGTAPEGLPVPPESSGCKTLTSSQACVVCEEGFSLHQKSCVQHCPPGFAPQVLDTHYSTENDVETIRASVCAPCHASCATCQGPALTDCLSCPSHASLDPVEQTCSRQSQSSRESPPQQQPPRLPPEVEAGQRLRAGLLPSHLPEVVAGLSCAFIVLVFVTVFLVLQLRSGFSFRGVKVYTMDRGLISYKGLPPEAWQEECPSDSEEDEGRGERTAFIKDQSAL
Procedure, shortened: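 Counterscreen measures cleavage of 2 microM BOC-RVRR-AMC, below its ~15 microM Km, by 5 nM full-length human furin at pH 7.0 after a 15-min compound preincubation. Inhibition derives from the 15-min fluorescence increase at 37C.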

[11] = test system: Zika virus NS2B-NS3 protease (linked construct); assay: Confirmatory screen NINDS AMC qHTS for Zika virus inhibitors (AID 1347152); further: potency means the concentration at half of the fitted maximal effect; nearly all actives have a fitted effect of over 70% in size
Procedure, shortened: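 Linked NS2B-NS3 protease, 1 nM, in 10 mM Tris-HCl pH 8.0, 0.01% Tween 20; compounds preincubated 15 min at room temperature. Nle-KRR-AMC 10 microM (Km 18.3 µM); 15-min fluorescence change (340/450 nm) fitted to 4-parameter Hill.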

[12] = test system: Zika virus NS2B-NS3 protease (unlinked complex); assay: Confirmatory screen GU AMC qHTS for Zika virus inhibitors (AID 1347153);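 further: enzyme at 25 nM with substrate at 10 µM below its Km of 18.3 µM; potency means the concentration at half of the fitted maximal effect; nearly all actives have a fitted effect of over 70% in size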
Procedure, shortened: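 Fluorescence change (ex 340/em 450 nm) over 15 min, ~20% substrate conversion, normalized to no-inhibitor and no-enzyme controls, then Hill-fitted. Unlinked protease at 25 nM; AMC peptide 10 µM.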

[13] = Cell Viability - BJ (AID 421; calls by dose curve;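 further: potency means the concentration at half of the fitted maximal effect; cells exposed to compound for 40 hours at 37 °C before readout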); settings: BJ fibroblast viability, qHTS
Procedure, shortened: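 Cytotoxicity in human BJ foreskin fibroblasts is scored as loss of cellular ATP after a 40-hour exposure, measured by luciferase luminescence. Controls are DMSO and 100 uM tamoxifen.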

[14] = Cell Viability - HepG2 (AID 433; calls by dose curve;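 further: potency means the concentration at half of the fitted maximal effect; cells exposed to compound for 40 hours; potency for ATP loss meaning cytotoxicity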); settings: qHTS
Procedure, shortened: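 HepG2 cells, 1500 per well, treated 40 hr at 37 °C in complete medium; viability from intracellular ATP by CellTiter-Glo luminescence. Normalized to DMSO and 100 uM tamoxifen; AC50 from Hill fit of qHTS concentration-response.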

[15] = biological target: Thioredoxin reductase 1, cytoplasmic (Rattus norvegicus) (UniProt O89049); assay: qHTS Assay for Inhibitors of Mammalian Selenoprotein Thioredoxin Reductase 1 (TrxR1) (AID 488773); settings: Potency: inhibition; further: potency means the concentration at half of the fitted maximal effect; nearly all actives have a fitted effect of over 40% in size
Sequence of UniProt O89049 (O89049 whole entry, looked up): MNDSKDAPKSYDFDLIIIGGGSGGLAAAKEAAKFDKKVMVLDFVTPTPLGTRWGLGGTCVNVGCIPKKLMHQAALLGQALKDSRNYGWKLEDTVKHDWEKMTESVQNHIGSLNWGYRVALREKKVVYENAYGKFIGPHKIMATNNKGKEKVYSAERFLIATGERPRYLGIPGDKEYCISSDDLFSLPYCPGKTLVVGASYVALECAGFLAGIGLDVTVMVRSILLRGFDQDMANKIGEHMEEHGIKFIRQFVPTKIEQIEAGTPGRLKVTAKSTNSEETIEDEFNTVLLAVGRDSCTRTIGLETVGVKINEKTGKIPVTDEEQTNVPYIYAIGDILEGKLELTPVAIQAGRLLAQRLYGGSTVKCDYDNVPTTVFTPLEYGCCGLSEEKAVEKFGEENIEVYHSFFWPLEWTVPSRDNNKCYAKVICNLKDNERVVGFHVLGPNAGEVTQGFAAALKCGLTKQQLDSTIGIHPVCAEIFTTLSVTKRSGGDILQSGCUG
Procedure, shortened: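 Inhibition is scored from the loss of NADPH fluorescence between first and last reads of an 8-min kinetic run. Selenite (400 uM) was the substrate, added after 15 min compound preincubation at room temperature.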

[16] = Validation screen for small molecules that induce DNA re-replication in SW480 colon adenocarcinoma cells (AID 504364); further: 0% is about no effect
Procedure, shortened: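 Image-based DNA content read-out: Hoechst stain 40 min, total nuclear fluorescence intensity (ex 405 nm, em 500-530 nm) after 48 h compound exposure of 250 SW480 cells/well at 37 C, 5% CO2, versus DMSO vehicle.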

[17] = biological target: Estrogen receptor (Homo sapiens) (UniProt P03372); assay: qHTS assay for small molecule agonists of estrogen receptor alpha signaling (AID 588514; calls by dose curve;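 further: 0% = vehicle only and 100% = reference agonist; nearly all actives have a fitted effect of over 70% in size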); settings: ER-alpha-UAS-bla HEK293, beta-lactamase ratio, 18 h; activation: at 76.8 µM (top of the series), percent of full estradiol response, vehicle zero
Sequence of UniProt P03372 (P03372 whole entry, looked up): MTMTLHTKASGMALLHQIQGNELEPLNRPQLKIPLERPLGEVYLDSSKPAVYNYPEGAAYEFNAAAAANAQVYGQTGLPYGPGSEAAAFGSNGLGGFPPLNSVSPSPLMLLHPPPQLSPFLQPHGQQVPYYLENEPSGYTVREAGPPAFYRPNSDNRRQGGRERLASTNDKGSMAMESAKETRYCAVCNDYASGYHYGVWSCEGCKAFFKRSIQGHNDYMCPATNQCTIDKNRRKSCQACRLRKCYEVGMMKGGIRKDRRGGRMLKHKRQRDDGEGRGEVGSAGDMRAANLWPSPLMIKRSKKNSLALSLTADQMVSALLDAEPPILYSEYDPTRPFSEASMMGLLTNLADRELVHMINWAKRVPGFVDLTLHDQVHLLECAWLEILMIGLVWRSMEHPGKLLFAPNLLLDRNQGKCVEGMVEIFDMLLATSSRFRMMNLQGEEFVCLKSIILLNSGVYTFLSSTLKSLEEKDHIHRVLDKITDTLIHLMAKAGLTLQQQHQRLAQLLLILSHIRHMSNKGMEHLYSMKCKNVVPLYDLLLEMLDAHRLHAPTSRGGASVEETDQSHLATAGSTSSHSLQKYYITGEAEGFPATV
Procedure, shortened: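 EC50 and efficacy came from Hill fits of beta-lactamase reporter signal (CCF4 dye, 2 h at room temperature) scaled between DMSO and 20 nM 17-beta-estradiol. Agonist mode: HEK293 ER-alpha-UAS-bla cells in charcoal/dextran-stripped serum medium, 18 h compound exposure at 37 C.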

[18] = biological target: Peroxisome proliferator-activated receptor gamma (Homo sapiens) (UniProt P37231); assay: qHTS assay for small molecule antagonists of peroxisome proliferator-activated receptor gamma signaling (AID 588537; active means well fitted inhibition curve with a large enough effect in the signal ratio, with a control signal flat, not every such curve was filed as active; inconclusive means small, poorly fitted or top-dose-only effect, or effect the other way, or a change in a side signal; the % refers to the signal ratio;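 further: reporter cells co-stimulated with 50 nM rosiglitazone agonist during compound treatment; % of control where 0% means no effect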); settings: HEK293 PPARg-UAS-bla, beta-lactamase ratio, antagonist mode; activity, negative = inhibition: at 76.8 µM (top of the series)
Sequence of UniProt P37231 (P37231 whole entry, looked up): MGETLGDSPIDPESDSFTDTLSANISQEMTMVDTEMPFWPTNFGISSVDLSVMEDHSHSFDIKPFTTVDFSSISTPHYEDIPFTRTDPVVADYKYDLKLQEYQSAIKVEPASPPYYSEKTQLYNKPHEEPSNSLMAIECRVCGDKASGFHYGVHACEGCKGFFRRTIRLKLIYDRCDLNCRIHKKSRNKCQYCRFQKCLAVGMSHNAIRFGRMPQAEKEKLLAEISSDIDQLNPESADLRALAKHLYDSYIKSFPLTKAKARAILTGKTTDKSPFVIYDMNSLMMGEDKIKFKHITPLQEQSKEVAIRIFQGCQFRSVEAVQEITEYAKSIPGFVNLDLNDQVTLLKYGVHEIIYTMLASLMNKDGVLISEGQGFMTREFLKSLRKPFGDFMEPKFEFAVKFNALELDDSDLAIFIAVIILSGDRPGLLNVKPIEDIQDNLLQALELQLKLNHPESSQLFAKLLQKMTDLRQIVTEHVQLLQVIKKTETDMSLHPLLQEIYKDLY
Procedure, shortened: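 Fluorescence at 460 and 530 nm (405 nm excitation) reported beta-lactamase cleavage of CCF4 after 2 h room-temperature loading. HEK293 reporter cells in 1% charcoal/dextran-treated FBS had received compound and rosiglitazone for 16 h.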

[19] = biological target: Thyroid hormone receptor beta (Homo sapiens) (UniProt P10828); assay: qHTS assay for small molecule agonists of thyroid hormone receptor beta signaling (AID 588545; calls by dose curve; further: potency means the concentration at half of the fitted maximal effect); settings: TR-UAS-bla GripTite HEK 293, beta-lactamase ratio, agonist mode, 18 h; activation: at 76.7 µM, percent of T3 response, DMSO as zero
Sequence of UniProt P10828 (P10828 whole entry, looked up): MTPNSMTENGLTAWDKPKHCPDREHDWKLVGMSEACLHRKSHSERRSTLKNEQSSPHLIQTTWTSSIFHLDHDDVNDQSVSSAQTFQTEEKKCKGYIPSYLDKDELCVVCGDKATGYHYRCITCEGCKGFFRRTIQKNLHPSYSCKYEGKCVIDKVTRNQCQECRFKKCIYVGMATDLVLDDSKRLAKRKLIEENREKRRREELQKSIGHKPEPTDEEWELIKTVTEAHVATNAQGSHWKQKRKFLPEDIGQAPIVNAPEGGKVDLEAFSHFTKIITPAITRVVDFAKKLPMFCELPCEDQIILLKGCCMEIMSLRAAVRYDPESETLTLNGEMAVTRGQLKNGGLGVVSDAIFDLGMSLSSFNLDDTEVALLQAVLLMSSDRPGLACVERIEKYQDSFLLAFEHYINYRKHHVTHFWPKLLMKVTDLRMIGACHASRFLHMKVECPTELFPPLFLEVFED
Procedure, shortened: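 In this cell-based screen, titrated compounds act on HEK 293 cells held in medium with 2% charcoal/dextran FBS, NEAA and pyruvate for 18 hrs at 37 C. Responses are expressed relative to T3 (10 nM) as 100% and basal DMSO as 0%.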
Tags describe the fitted curve by direction and shape.

NCCc1ccc(O)c(O)c1
Potency [1]: inconclusive [inhibitor, partial curve]
Potency [2]: inconclusive [inhibitor, single point]
Potency [3]: inconclusive [inhibitor, full curve, poor fit]
activity, negative = inhibition [4]: inactive: 1.57%
Potency [5]: inconclusive [inhibitor, single point]
Potency [6]: inconclusive [activator, partial curve]
Potency [7]: inconclusive [inhibitor, single point]

OC[C@H]1O[C@@H](OC[C@H]2O[C@@H](OC/C=C/c3ccccc3)[C@H](O)[C@@H](O)[C@@H]2O)[C@@H](O)[C@@H]1O
Potency [8]: inconclusive [activator, full curve, poor fit]
Potency [9]: inactive
Potency [10]: inactive

Cc1ccccc1N1C(=O)c2cc(S(N)(=O)=O)c(Cl)cc2NC1C (stereo not given)
Potency (Furin (Homo sapiens)): active: 27 µM
Potency [11]: inconclusive [inhibitor, partial curve]
Potency [12]: inconclusive [inhibitor, partial curve, poor fit]

Nc1ccn([C@H]2CC[C@@H](CO)O2)c(=O)n1
Potency [13]: inactive: > 92 µM
Potency [14]: inactive: > 92 µM
Potency [15]: inconclusive [inhibitor, single point]
Potency [16]: inactive
Potency [17]: inactive
Potency [18]: inactive
Potency [19]: inconclusive [side channel, falling, single point]
